According to publication PMC4336329 (PLoS ONE, 2015):
Out of some 310,000 compounds screened, about 2,200 (0.71%) showed an effect of 50% or more. Effects have a minus sign here. Some of the results follow.

These molecules were tested against human ether-à-go-go-related gene (hERG) potassium channel (human, UniProt Q12809) (assay: primary screen, population patch clamp on CHO cells stably expressing hERG).
human ether-à-go-go-related gene (hERG) potassium channel, sequence (Q12809 whole entry, looked up): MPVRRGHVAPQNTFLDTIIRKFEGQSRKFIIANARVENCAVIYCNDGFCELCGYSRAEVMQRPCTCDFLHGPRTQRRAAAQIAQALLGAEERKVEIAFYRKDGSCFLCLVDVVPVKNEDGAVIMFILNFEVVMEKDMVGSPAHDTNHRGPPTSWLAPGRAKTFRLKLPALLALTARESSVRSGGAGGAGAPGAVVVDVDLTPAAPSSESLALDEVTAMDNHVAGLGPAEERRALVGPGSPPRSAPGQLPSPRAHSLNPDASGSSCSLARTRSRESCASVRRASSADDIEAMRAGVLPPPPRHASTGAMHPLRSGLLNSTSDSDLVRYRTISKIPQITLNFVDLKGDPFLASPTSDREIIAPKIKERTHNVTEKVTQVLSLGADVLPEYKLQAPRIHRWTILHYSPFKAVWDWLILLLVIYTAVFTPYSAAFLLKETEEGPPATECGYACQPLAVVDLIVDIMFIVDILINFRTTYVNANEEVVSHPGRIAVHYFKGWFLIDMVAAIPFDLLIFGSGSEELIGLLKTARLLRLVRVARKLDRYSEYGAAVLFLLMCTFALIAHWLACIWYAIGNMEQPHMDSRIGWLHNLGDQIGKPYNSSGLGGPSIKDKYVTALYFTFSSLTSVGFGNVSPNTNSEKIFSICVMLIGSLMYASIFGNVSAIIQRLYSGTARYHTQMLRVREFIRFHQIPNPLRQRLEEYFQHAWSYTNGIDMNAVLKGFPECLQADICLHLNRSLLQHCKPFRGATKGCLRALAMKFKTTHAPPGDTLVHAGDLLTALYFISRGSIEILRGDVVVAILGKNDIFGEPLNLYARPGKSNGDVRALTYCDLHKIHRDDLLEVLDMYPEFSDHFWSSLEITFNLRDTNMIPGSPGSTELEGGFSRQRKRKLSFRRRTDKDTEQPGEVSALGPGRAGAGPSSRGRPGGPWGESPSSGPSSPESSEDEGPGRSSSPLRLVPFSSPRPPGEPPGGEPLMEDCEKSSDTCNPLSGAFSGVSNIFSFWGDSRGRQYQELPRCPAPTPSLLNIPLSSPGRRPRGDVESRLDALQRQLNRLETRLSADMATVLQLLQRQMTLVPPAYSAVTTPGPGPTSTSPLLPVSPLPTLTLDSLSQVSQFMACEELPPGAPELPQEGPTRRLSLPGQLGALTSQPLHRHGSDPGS

Point of comparison: `CCOC(=O)c1ccc(OCCOc2ccccc2C)cc1`, “hERG current change (%, negative = inhibition) at 1uM” value 11.5%. Against it:
- O=C(COc1nsnc1N1CCOCC1)Nc1ccc(Br)cc1 — lower, 6.78%
- O=P(NS(=O)(=O)c1ccc(Cl)cc1)(Oc1ccccc1)Oc1ccccc1 — lower, 0.444%
- COc1ccccc1C(=O)Nc1nnc(S(=O)(=O)N2CCCCC2)s1 — higher, 14.7%
- Cl.N=c1n(CCO)c2ccccc2n1Cc1ccc(Cl)cc1 — lower, -14.6%
- CN(CC(=O)Nc1ccc(Cl)c(Cl)c1)C(=O)C1CCCC1 — lower, 5.9%
- O=C(Nc1cc(Cl)cc(Cl)c1)C1CC(=O)N(C2CCCC2)C1 (centres unmarked) — lower, -1.6%
- Cn1c(CC(=O)Nc2ccccc2)nnc1SCC(=O)c1ccccc1 — higher, 12.7%
- CCn1c(C)nc2cc(OC)ccc21 — lower, 10.5%
- COc1cc(NC2c3ccccc3C(=O)N2c2cc(C)ccn2)cc(OC)c1OC (centres unmarked) — higher, 13.1%
- CCN(CC)S(=O)(=O)c1cc(NC(=O)c2n[nH]c(=O)c3ccccc23)ccc1C — lower, 6.54%
- COc1ccc(NC(=O)c2cc(-c3ccncc3)nc3ccc(Br)cc23)cc1OC — lower, -0.401%
- CC(=O)Nc1ccc(-n2c(C)nc(=O)c(-c3ccccc3)c2C)cc1 — higher, 16.9%
- CCCN1CNC(=S)N(c2cccc(C)c2)C1 — higher, 14.5%
- Cc1oc(-c2ccoc2)nc1CN(Cc1ccccc1)CC1CC1 — lower, 5.28%
- CCc1ccc(Nc2nnc(SCC(=O)N(C)C3CCS(=O)(=O)C3)s2)cc1 (centres unmarked) — lower, -8.13%
- NS(=O)(=O)c1ccc(NC(=O)c2ccc3c(c2)OCO3)cc1 — higher, 15.8%
- CCOP(=S)(OCC)SCCSCC — higher, 12%
- Cc1ccc2c(Cl)c(C)c(N3CCCCC3)nc2n1 — lower, 1.91%
- N#Cc1cccc(NC(=O)CNc2cccc(S(=O)(=O)N3CCCCC3)c2)c1 — lower, 6.62%
- O=C(COC(=O)c1ccccc1F)NNC(=O)c1ccccc1 — higher, 15.5%
- CCC1Nc2ncnc(N3CCN(c4ccccc4)CC3)c2N(Cc2ccc(Cl)cc2)C1=O.O=C(O)C(F)(F)F (centres unmarked) — lower, 11.1%
- Cc1cc(C)n(-c2ccc(NC(=O)C3CCCCN3C(=O)c3cc(C)oc3C)cc2)n1 (centres unmarked) — lower, 4.95%
- Cc1cccc(N2CCN(C(=O)CCC(=O)N3CCOc4ccc(Cl)cc43)CC2C)c1 (centres unmarked) — lower, 3.68%
- CC(C)[C@H](NC(=O)c1ccco1)C(=O)OCC(=O)N1CC(=O)Nc2ccccc21 — lower, 4.97%
- CC1CN(C(=O)c2ccccc2)c2ccccc2NC1=O (centres unmarked) — lower, 7.07%
- CC(=O)C(CC(=O)N1CCCc2ccccc21)C(=O)Nc1ccc(F)cc1 (centres unmarked) — lower, 10.5%
- CC(C)(C)c1ccc(C(=O)C=[N+]=[N-])cc1 — lower, -11.8%
- O=C(Nc1ccc(CN2CCCCC2)cc1)Nc1ccccc1Cl — lower, -4.06%
- O=S(=O)(c1ccc(Br)s1)N1CCNCC1 — lower, 0.813%
- Cc1ccc(NS(=O)(=O)c2ccc(C)c(C(=O)N3CCN(C)CC3)c2)cc1.Cl — lower, -0.66%
- Cc1ccccc1NC(=O)N1CCN(C(=O)c2ccco2)CC1 — lower, 9.32%
- Cc1ccc(-n2nc3c(c2NC(=O)C(C)(C)C)CSC3)c(C)c1 — higher, 13.3%
- O=C(CCN1C(=O)c2cccc3cccc(c23)C1=O)NCc1ccco1 — lower, 0.727%
- COC(CNC(=O)c1ccc(CS(=O)(=O)c2c(Cl)cccc2Cl)o1)OC — higher, 20.4%
- Cc1c(NC(=O)c2ccccc2)cccc1[N+](=O)[O-] — lower, 7.72%
- Br.N=C(N)SCc1cn2ccccc2n1 — lower, -1.37%
- COc1nc(N(C)C)nc(N2CC(=O)N(CCNS(=O)(=O)c3ccc(C)cc3)C2=N)n1 — lower, 10.1%
- Cc1cccc(OCCCC(=O)O)c1C — lower, 10.9%
- O=C1CCN(Cc2cccnc2)CCN1[C@H](CO)c1ccccc1 — higher, 13.2%
- CCOc1ccc(NC(=O)C2CCN(c3nnnn3-c3ccccc3)CC2)cc1 — lower, -8.01%
- COC(=O)CSc1nnc(CNC(=O)c2ccccc2F)n1-c1ccc(F)cc1 — lower, 9.7%
- Cc1ccc(CNC(=O)c2c(-c3ccccc3)noc2C)cc1 — higher, 19.7%
- C=CCOc1nc2c(c(=O)n(C)c(=O)n2C)n1C — lower, 2.43%
- O=C(NNC(=O)c1ccc(F)cc1)C(=O)N1CCCCC1 — lower, -4.55%
- O=C(CSc1nncn1-c1ccccc1)Nc1cc(Cl)cc(Cl)c1 — lower, 5.88%
- O=C(Nc1ccc(OCC(=O)N2CCOCC2)cc1)Nc1cccc2ccccc12 — lower, 10.7%
- Cc1cc(=O)oc2c(CN3CCC(C)CC3)c(O)c(Cl)cc12 — lower, 8.01%
- OC(CNCCc1ccc(C(F)(F)F)cc1)COc1cccc2ccccc12 (centres unmarked) — lower, -2.51%
- CCOC(=O)CC(NC(=O)c1ccccc1F)c1ccc(C)cc1 (centres unmarked) — lower, 0.886%
- N#Cc1ccc(C(=O)OCC(=O)NC2CCCC2)cc1 — higher, 11.7%
- COc1ccc(NC(=O)c2cc(S(=O)(=O)N3CCCCC3)ccc2N2CCCCC2)cn1 — lower, 7.51%
- COc1ccc(C(=O)Oc2ccc(/C=N/NC(=O)Cc3ccc([N+](=O)[O-])cc3)cc2)cc1 — lower, 11%
- O=C(OCc1cc2ccccc2[nH]c1=O)C1CCCO1 (centres unmarked) — higher, 12%
- c1ccc(-c2cn(-c3ccccc3)c3ncnc(N4CCCCC4)c23)cc1 — lower, 9.67%
- Cc1ccc(CNC(=O)c2ccc(N3CCC4(CC3)CC(c3cccc(Br)c3)=NO4)c(N)c2)cc1 — higher, 16.2%
- CC1(C)C2CC[C@]3(C)C(CC=C4[C@@H]5C[C@@](C)(CO)CC[C@]5(C(=O)O)CC[C@]43C)[C@@]2(C)CC[C@@H]1O (some centres unmarked) — lower, 10%
- CC1(C)Cc2c(sc3nc[nH]c(=O)c23)CO1 — higher, 12.1%
- COc1ccc(OC)c(CCNC(=O)CCn2ccc3cc(S(=O)(=O)N4CCCC4)ccc32)c1 — lower, 8.27%
- Cc1ccc2nc(N(CCN(C)C)C(=O)c3ccc4c(c3)OCCO4)sc2c1.Cl — lower, -14.1%
- COc1ccccc1NC(=O)NCCN1C(=O)C2C3C=CC(C3)C2C1=O (centres unmarked) — lower, 10.3%
- COc1ccc(-c2cc(-c3c(O)c(OC)c4occc4c3OC)[nH]n2)cc1OC — lower, -0.582%
- COc1ccc2nc(NC(=O)c3ccc([N+](=O)[O-])o3)sc2c1 — higher, 14.3%
- CN(CC(=O)N1CCN(C2CCCCC2)CC1)S(=O)(=O)c1cccc2nsnc12 — lower, 7.99%
- COc1cccc(C2C(C#N)=C(N)Oc3cc(C)[nH]c(=O)c32)c1OC (centres unmarked) — lower, -2.73%
- COc1ccc(C(=O)CSc2ccccc2C(=O)O)cc1 — higher, 11.6%
- CCN(CC(=O)Nc1cc(Cl)ccc1C)C(=O)c1ccc(N2CCCC2=O)cc1 — higher, 18.4%
- Cn1c(C(=O)N/N=C/c2ccccc2)cc2ccccc21 — higher, 12.1%
- CCOC(=O)CSc1nc2cccnc2n1-c1ccc(F)cc1 — lower, 9.18%
- CCOc1ccccc1N1CCN(C(=O)CSc2ccc3c(c2)OCCO3)CC1 — lower, -1.92%
- COc1cc(C(=O)NCC(=O)Nc2ccc(F)c(F)c2)ccc1OCC(=O)N1CCOCC1 — higher, 32.1%
- NS(=O)(=O)c1ccc(CCNC(=O)CCS(=O)(=O)c2ccc(Br)cc2)cc1 — higher, 16.5%
- Cc1ccc2c(Cl)c(C(=O)Nc3ccc4c(c3)OCO4)sc2c1 — higher, 14.5%
- CCN(CC(=O)NCCCN1CCOCC1)S(=O)(=O)c1ccc(Cl)cc1 — lower, 1.72%
- Cc1cc(C)n(-c2nc3ccccc3nc2N2CCCC2)n1 — lower, 1.02%
- COc1cc(OC)nc(NC(=O)NS(=O)(=O)c2ccccc2Cl)n1 — higher, 12.1%
- Nc1ncnc2c1ncn2[C@@H]1O[C@H](COP(=O)(O)O)[C@@H](O)[C@H]1O.O — lower, 1.63%
- COC(=O)c1ccc(OC(=O)c2cccs2)cc1 — higher, 15.5%
- Cc1ccc(CSc2n[nH]c(N)n2)cc1 — lower, -0.22%
- CCOC(=O)N1CCN(C(=O)C2CCN(S(=O)(=O)c3ccc(NC(C)=O)cc3)CC2)CC1 — lower, 10.3%
- CN(CCNC(=O)c1ccc(N2CCCC2=O)cc1)CCc1ccccc1 — lower, -22%
- Cc1cc(Cl)ccc1NC(=S)NCC(C)C — lower, 8.4%
- CCC(C)(C)n1nnnc1C(c1ccccn1)N1CCCCC1 (centres unmarked) — lower, 4.32%
- NC(=O)C1=C[C@@H](c2ccc(C(F)(F)F)cc2)C[C@@H](OCCCCO)O1 — lower, 9.27%
- COc1ccc(C(=O)NCc2cnn(C)c2C)cc1OC1CCN(C(C)C)CC1 — higher, 15.7%
- COc1ccc(-c2noc(C3CCCN(C(=O)c4c(F)cccc4F)C3)n2)cc1OC (centres unmarked) — lower, 10.9%
- Cc1ccn(C(=O)c2cc3cc(Cl)ccc3oc2=O)n1 — lower, 9.39%
- CCc1ccc(-c2cc(C(F)(F)F)n3nc(C(=O)Nc4c(C)nn(Cc5ccccc5Cl)c4C)cc3n2)s1 — lower, 8.69%
- COc1ccccc1-c1cc(C(F)(F)F)nc(N2CCCC2)n1 — higher, 20.3%
